Results taken from the RNAGym collection of RNA variant scans (doi:10.1073/pnas.2313332121).
Variants at the background level are over-represented here.

B1: TPR 5TU (parent)
chain: GGAUCUUCUCGAUCUAACAAAAAAGACAAAUCUGCCACAAAGCUUGAGAGCAUCUUCGGAUGCAGAGGCGGCAGCCUUCGGUGGCGCGAUAGCGCCAACGUUCUCAACUAUGACACGCAAAACGCGUGCUCCGUUGAAUGGAGUUUAUCAUG

Variants of: B1
Experiment: polymerase ribozyme fitness, log enrichment relative to wild type (log ratio); higher = more active; in vitro selection for triplet polymerase activity
Method in brief: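 One round of in vitro selection, in triplicate, was applied to PCR-built, transcribed mutant libraries of each subunit of a heterodimeric triplet polymerase ribozyme. The steps were annealing with a biotinylated primer, partner subunit and triplets, incubation frozen at −7 °C, gel excision of extended constructs, streptavidin-bead capture and RT-PCR. Fitness is the logarithm, base 2, of genotype enrichment over wild-type enrichment from inverse-variance-weighted replicate averages of Illumina-sequenced inputs and outputs, keeping genotypes with ≥10 input reads and ≥1 read per output.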

Variant | polymerase ribozyme fitness (log ratio)
A29C U33G A40U G80U G94U U102C G143A U151A | -3.89
A29C U44G U55A G68A G71U G80A C93A A98U A138C | ≤ -4.2
A29C U55A C63U C95G G133U G152U | ≤ -4.2
A29C U56A A73G C79G | ≤ -4.2
A29C U102A | ≤ -4.2
A29C U145C | ≤ -4.2
A29G A30C G59C U90G C95G G133U | ≤ -4.2
A29G A30C G86U A137U | ≤ -4.2
A29G A39G G42C G48C G86A C87A A106G C116U A147G | ≤ -4.2
A29G A41C C95A | ≤ -4.2
A29G A41U G88U C95G G133U | ≤ -4.2
A29G A47C A89C G92U G94A U146C | ≤ -4.2
A29G A47C G80U U101A A107U U127C | ≤ -4.2
A29G A47U A49U G94A C131U | ≤ -4.2
A29G A49C G67A C114U U127G | ≤ -4.2
A29G A52C C85A U90C C95G A97G C118A A138C G143U | ≤ -4.2
A29G A52G | -4.08
A29G A52G C54G C87U G143A | ≤ -4.2
A29G A89U C96U A115C A121C G143U | ≤ -4.2
A29G C32A C38U U55A G86A U104G G141U C149U | ≤ -4.2
A29G C32G U55C A91G C103U A142U U151C | ≤ -4.2

Variant | polymerase ribozyme fitness (log ratio)
A29G C38U U53G C85G A98U C108A G128U | -3.97
A29G C51A U78G A91G U101G C132U A142U U145C | ≤ -4.2
A29G C51G G84A U90A A119U G124C | ≤ -4.2
A29G C51U C96G | ≤ -4.2
A29G C57G A113C A138G | ≤ -4.2
A29G C57G C63A A64G A73G C96G G133C U145A | ≤ -4.2
A29G C76U G92A C123G G143U | ≤ -4.2
A29G C93G | ≤ -4.2
A29G C93G A115U C116G C149G | ≤ -4.2
A29G C96A | -3.46
A29G G50A G80U A91C U134A U146C | ≤ -4.2
A29G G50U C57U C69U G94U C114A | ≤ -4.2
A29G G59C C76A C95G U102G G136A | ≤ -4.2
A29G G68U G83C G86A U90C G141A U144G | ≤ -4.2
A29G G84A C99U A106C C116A U139C U151A | ≤ -4.2
A29G G84A U144G | ≤ -4.2
A29G G84U G117A | ≤ -4.2
A29G G88U G126A | ≤ -4.2
A29G U33C G141A U145A | ≤ -4.2
A29G U55A C114A G141U | ≤ -4.2
A29G U55G U56A G68A C96U | ≤ -4.2

Variant | polymerase ribozyme fitness (log ratio)
A29G U56G G86U G141C G143U | ≤ -4.2
A29G U90G A122U A142U C149G | ≤ -4.2
A29U A30U A37U A47G G50C A97U G100U A106C | ≤ -4.2
A29U A40U A47C G58C G67U C72A C125A U130G G133U | ≤ -4.2
A29U A41G A91U | ≤ -4.2
A29U A41U | ≤ -4.2
A29U A41U A47C C114G C132U | ≤ -4.2
A29U A41U C75U C123U G143U U145G | ≤ -4.2
A29U A49G C54G G59U A91U C96A G117U A142U | ≤ -4.2
A29U A49U U78G G83C C99U G112A | ≤ -4.2
A29U A52C | ≤ -4.2
A29U A60G C76A | ≤ -4.2
A29U A60U G100A U145G G152U | ≤ -4.2
A29U A64U C72U A122G U139A | ≤ -4.2
A29U A66C C79U A97U G143C | ≤ -4.2
A29U A73C A115G C125A C132G G140U U144G | ≤ -4.2
A29U A73G C93A G128U G140U | ≤ -4.2
A29U A107C | ≤ -4.2
A29U C32A G42U A64C C87G C103G | ≤ -4.2
A29U C32U A122G | ≤ -4.2
A29U C38U G67U C95U C105G G117C A137G G140A A142U | ≤ -4.2

Variant | polymerase ribozyme fitness (log ratio)
A29U C38U U56G C63G C95G G126U | ≤ -4.2
A29U C43G G58C G94C C95U | ≤ -4.2
A29U C51G G83C A106C | ≤ -4.2
A29U C51U U55A C57A U139A | ≤ -4.2
A29U C57G C95U | ≤ -4.2
A29U C79G G88C A113U C116U U127A U146A A147C | ≤ -4.2
A29U C79G U130G A138C | ≤ -4.2
A29U C87U A122U U145C | -3.85
A29U C96G U102G A115U A122U G136U | ≤ -4.2
A29U C99A | -4.17
A29U G34U G65C U101A A106U | ≤ -4.2
A29U G46U G59A G70A A89U G117U U148A | ≤ -4.2
A29U G50A G58C A60C G88A C116G U139A G141C G143C | -3.79
A29U G50U A52C U101G U148A | ≤ -4.2
A29U G58A C63U C69A | ≤ -4.2
A29U G58A C87U A98G C103A U111C G124A | ≤ -4.2
A29U G58C A60G G92C G117A | ≤ -4.2
A29U G58C G86A G141U | ≤ -4.2
A29U G59C G62U C95U C116A | ≤ -4.2
A29U G65A A121G G141U | ≤ -4.2
A29U G70U | ≤ -4.2
